± gives the standard deviation of the averaged measurements. The list shows a part of the results.
The sequences below were run on PfAP2-G AP2 domain (GST-tagged) (assay: gcPBM binding intensity (ln(normalized median fluorescence intensity)); higher = stronger DNA binding).
Method in brief: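 GST-tagged P. falciparum DNA-binding domains produced in E. coli were incubated for 1 h on an Agilent 4 × 180k array of primer-extended double-stranded 36-bp intergenic genomic probes with negative controls. Binding intensity is the highest Masliner-normalised natural-log median intensity across replicate spots of either probe orientation, with bound protein detected by Alexa488 anti-GST antibody at 488 nm.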

Sequence | gcPBM binding intensity (ln)
TTTTTATTGGTGAATACACACGTATATATATATTAT [CACACA_site8756] | 10.3 ± 0.19
AAAAAAAAAAAATACACACACATAAAAAAAAAAATA [CACACA_site1858] | 9.96 ± 0.41
ATTATATTAACAATGACATGCAATTCTTAATCCTTA [TGCATGCA_site648] | 9.99 ± 0.057
ATAAGAATCATATTTAAACACACATACATATATATA [CACACA_site9106] | 9.895 ± 0.049
AGAAAGAAGATATATACACACAAAAAAAGATATATA [CACACA_site6779] | 9.955 ± 0.035
TATAAATATTTATACACACACACATTAATACCTATA [CACACA_site7604] | 10.28 ± 0.085
AAAAGAAGATAATACAGTACAGAATAATATAAAATA [XGTACX_site5962] | 10.8 ± 0.33
TTCTTTCTAGAATATTGTACATATATTGTTATTATA [XGTACX_site8425] | 11 ± 0.45
CACAAACAAAAACACACACACACACCGACAAAAATG [CACACA_site5362] | 10.5 ± 0.38
AAATAAAATAAATAATATAAAATAATATATAAAAAA [CACACA_negctrl_site1777] | 9.415 ± 0.049
TTTTGTTAAAAAGATGTATATTTTATAAATATTTAT [CACACA_negctrl_site101] | 9.66 ± 0.16
AACACCAATTCATATGCACACACATCTGCATATTAT [CACACA_site8523] | 10.12 ± 0.078
TTTATAAATATTCTCACACACTTTTTATTTTAACAA [CACACA_site6454] | 9.94 ± 0.042
TATAGAAGCAAATTATGTACACAATATGGAAAATCA [XGTACX_site3345] | 11.4 ± 0.86
CATACATATAAACACACACACACACCCACCCACAAA [CACACA_site8059] | 10.5 ± 0.39
TAGTTAGCCCAAGGGGTGCTAATTACTATCTAAATA | 9.99 ± 0.3
TAATGTATCTAAAATTGTACAAATATAAATATAAAT [XGTACX_site2764] | 10.9 ± 0.49
GTCGAGGATATATAAAGTACATATATATATATGATA [XGTACX_site1128] | 11.1 ± 0.71
GTGTCAAATTTTATAACACACAAAAGGTTATATAAG [CACACA_site7839] | 10.09 ± 0.078
ATAGTTTCTGGTAGCTGTACGAGTCGTAGAGTGCAG [XGTACX_site2022] | 11.4 ± 0.64
TAGTTACCTTAATATTGTACTTTTCTTTCATATATG [XGTACX_site1309] | 11.3 ± 0.8
CACTAAATAAGGAAAGTGCATAAAATAAAGGTTATA [GTGCAC_site9793] | 10.2 ± 0.15
ATTTAAAAAATATATTGTACATATTTTATTATGTTT [XGTACX_site2984] | 11 ± 0.63

Sequence | gcPBM binding intensity (ln)
AAAAAAAAAAAAAAAAAAAAAAAAAAATGAGATACA [GTGCAC_negctrl_site160] | 11 ± 0.65
TATATATATAAATACACACACACAAAAAAAAAAAAA [CACACA_site4930] | 9.96 ± 0.5
AATTTAATTGTGAGAGTGCGTACTGCTCCACATATA | 11.3 ± 0.94
ATGTGTTTGTATATATGTACATATTTATGTTATTTC [XGTACX_site6960] | 11.4 ± 0.62
TTTTGATATATGAATATTAAGTTATATAATATTTTA [TGCATGCA_negctrl_site39] | 9.51 ± 0.16
AAAAGGATATATGAAAGTACAAAGGTATAGTATATT [XGTACX_site7385] | 10.8 ± 0.37
TACAGTAAAAATAGTTGTACTTGTTTATTTCTTCTT [XGTACX_site7674] | 11.3 ± 0.88
ATGATATATTTAATAGTGCACTAATTAAAATTATTA [GTGCAC_site9418] | 10.3 ± 0.39
ATCTTATCATTTTAAAGTACATAATTAATTCTTTTT [XGTACX_site3999] | 11.2 ± 0.67
TATAACAAATAAAAATGTACATATATATAATATATA [XGTACX_site6173] | 11.1 ± 0.56
ATAATACCAGAATAGATTTAAATGAATATTTTATTT [CACACA_negctrl_site476] | 9.32 ± 0.7
GGTTATATGATAGGATGTACAATTAAAAGTAAATAT [XGTACX_site5083] | 11 ± 0.57
TTATTATTCTTAAGGATATAACAAAAAAGAAAAATT [CACACA_negctrl_site1402] | 9.97 ± 0.18
TCCTATAAACAAATTTGTACATATAAGAATATATTC [XGTACX_site3892] | 10.8 ± 0.55
TATTTATATTTATATACACACATATATACCTATATA [CACACA_site7820] | 9.9 ± 0.071
GATTATTTTAGAAGTACACACATTTATATATAATAA [CACACA_site5429] | 11.5 ± 0.96
TATTCTAGAATTTTAACACACAAGAATATAAACTTT [CACACA_site6757] | 9.82 ± 0.11
ATTTTTAAATACAGTACACACATGGGTTTAAATTAT [CACACA_site2884] | 11.2 ± 0.79
TAAAATATAATGATCACACATATAAACAAGTGGGTA [CACACA_site4651] | 9.99 ± 0.057
GCCGCACCCAGATACGCACACAAGAAAAAAATATTC [CACACA_site3456] | 10.7 ± 0.47
TATGGATAAATAAATACACACATAAATTTAAATATA [CACACA_site1282] | 10.04 ± 0.078
TATAAACGCACCTACACACACAACGTAAATGCATTG [CACACA_site7120] | 10.3 ± 0.24
TGAACATTATAGAAAAGTACTTAGTTTTTAAAAAGA [XGTACX_site6864] | 11.2 ± 0.78

Sequence | gcPBM binding intensity (ln)
TATTCAAAACGGTATTGTACAAATTTTATAATTTAA [XGTACX_site6928] | 10.9 ± 0.43
TTTTTTTTTTTTTACTGTACTTAATAAGATTGAATA [XGTACX_site2384] | 11.4 ± 1.1
TATAAAAAAAAAAAAAAAAAAAAAAAAAAAAAAAAA [TGCATGCA_negctrl_site42] | 9.71 ± 0.042
GTTTATATGTTCATAGTGCATATATGTTGATTTATT | 9.965 ± 0.064
ATAAATATTATTTTACGTACATATTTATGAAGTATT [XGTACX_site8746] | 11.3 ± 0.81
CAGGAGAGAAAATATCGTACAAGCAAAAATAAGTGG [XGTACX_site8557] | 11.1 ± 0.64
GTAGAGAAAAAAATGTGGACACAAAAAATAAAAAGG [XGTACX_site4058] | 11.6 ± 0.95
TTTTTTTTTTTTTGCACACACATATATAAATATATA [CACACA_site3949] | 9.95 ± 0.44
TATATTGCAAAAAGTACACACATAAATAAATACATA [CACACA_site6589] | 11.6 ± 1.1
TATTATTTTAAGATTGTTTATGTAAAGAATTATGAA [CACACA_negctrl_site445] | 9.84 ± 0.28
TGTGTATATATGCTGGTGCAACTTTAAAAAATAATC | 10.2 ± 0.3
AAATTATATACCACAGTGCAAAAGGCAGGTATACGT | 10.3 ± 0.13
TATTTATTTATTTTGTTATAATTAAAATGGATACAT [XGTACX_negctrl_site387] | 9.97 ± 0.32
AGTAGTCTGGAGAAGAGTACATAGTATCTGGTAGCT [XGTACX_site2017] | 11.3 ± 0.81
CTACACACTTATAAATGTACAGGATTTAAGTATATG [XGTACX_site8245] | 10.9 ± 0.49
TGTAATAATCTTCATTTCTTTTTTTTTTTTTTTTGT [CACACA_negctrl_site1388] | 9.53 ± 0.15
AAATATAATAATACATTGCACATATATTATATATAT [TGCATGCA_negctrl_site611] | 9.9 ± 0.15
TAACTTAATAAAAAAAGTACATATATTTTTAATAAA [XGTACX_site2707] | 11.4 ± 1
AGTGAATATTACGAAACACACAAAAAAATACATTTC [CACACA_site511] | 10.03 ± 0.014
ATATAAGTTTTTTCTCAAAAAGTATAACGAGCATGA [CACACA_negctrl_site1375] | 10.12 ± 0.049
TCTATTATCCTTTGCACACAAAATAAATGAAAAAAT [CACACA_site3029] | 10.2 ± 0.37
ACATTATATAAATATATACATATATATATATATAAA [GTGCAC_negctrl_site115] | 9.63 ± 0.057
TTTGATAAATGATACACACACAATATTTATAAAATA [CACACA_site7040] | 10.2 ± 0.099

Sequence | gcPBM binding intensity (ln)
CCCACGTATATTTTGTGTACATAAATAAATAAATAA [XGTACX_site4046] | 11.6 ± 0.86
TGTCATGATACATACACACACATACACATACACATA [CACACA_site2135] | 10.3 ± 0.25
ATGCATAAAAGAAATACACACATAAATATATAAATA [CACACA_site2163] | 9.85 ± 0.028
TATGGATTACACAATTGTACAAGAAAAATGTAAATA [XGTACX_site4040] | 10.9 ± 0.41
TATTTAATTATATAAAATTAAATTTTTAATTCTTCC [CACACA_negctrl_site473] | 9.38 ± 0.21
ACATCTATGTATAATACACACACTAATATATAATTG [CACACA_site5134] | 10.2 ± 0.16
ACATATTATTCTTCTTGTACACATAAATTTTATAAA [XGTACX_site299] | 11.4 ± 0.88
ATACGAAAATATTTTGCACACTATAATTATTCATAT [CACACA_site1765] | 10.06 ± 0.092
TTTCCCTACCAAAAGTGTACTTATACATATTTTTAT [XGTACX_site5495] | 11.5 ± 0.89
AAAAAAAAAAAAAAAGTGCATTAATAAATTTTAATA | 10.4 ± 0.33
TATACTCATATATAAACACACAAAAAAAAAAAAAAA [CACACA_site5165] | 9.71 ± 0.47
ATATATATATATATGTGTACATATATATATCATATG [XGTACX_site3126] | 11.4 ± 0.88
TTTTTTTCATAATATACACACAAAAAAAAAAAAAAA [CACACA_site3224] | 9.97 ± 0.57
TGATATTTAAATTTTGCACACGCATATGAAATTAGG [CACACA_site1034] | 10.2 ± 0.16
TCTTATAATTTACCTACACACAGGAAATATATAAAT [CACACA_site294] | 10.07 ± 0.085
TCAGAAATATTACAAAGTACATGCAACGAAAATTTC [XGTACX_site5061] | 10.9 ± 0.54
ACACAATGTAGTGTATAAATACAATAAAAGGTTGTA [TGCATGCA_negctrl_site251] | 10.02 ± 0.078
AAAAAAATATTCAAAGCATGCCTATTTACACATATT [TGCATGCA_site806] | 9.815 ± 0.078
ATGACGTAGTGGTGTACACACATGGTACCTTTATTC [CACACA_site1547] | 11.6 ± 0.84
CATATAGTAATATATACACACACTTGTCTTGTAAAA [CACACA_site8238] | 10.01 ± 0.042

From the supplement of paper PMC11417369
